{"source": "the supplement of paper PMC8728848", "binders": {"B1": {"name": "PX9961C-bth-497-22-497 (Bacteroides thetaiotaomicron) (protein)", "chain": "DWLDLNTTSSVETGQAIVTLDDAQIALNGIYRLASGHSYYGDNYWYYGDCRAADVQARITKGDGKRVSPYYEYNVLASDNLNIVLPWNTVYKVIRQTNNLIQKIESGSIQSSDTKELNRIKSEALVMRGLSLFNLTRLFGMPYTNDKGASLGVPIETSPSDPTHKPSRSTVAQCYEQVVSDMSNALSGLRQETSNGYINYWAAQALLSRVYLNMGEYQKAYDAATDVIKNNGGRYQLYSYEEYPNVWGQDFQSESLFELYITLSEPSGGTGGEGAPMVYANEATVDWNNLILSEDFLNLLNEDPKDVRHCLTKESVIENNTGLPAAAMHEKVYLAKFPGKTGDDPKTNNICIIRLSEVYLNAAEAGLKKGTDIEEAQGYLNDIISRRTTDTSQQVSTETFTLDRILKERRKELVGEGEVFYDYLRNGLAIERKGSWHLETLKASNAQKIEATDLRIALPIPQSEIDANPNIQQNPR"}}, "experiment_in_all_cases": "glycan array binding signal (z-score within array); higher = stronger binding", "settings_in_all_cases": "glycan notation: IUPAC condensed, linker removed", "key": {"[1]": {"target": "Gal(b1-3)GlcNAc(b1-6)[Gal(b1-3)]GalNAc", "summary_of_the_method": "(§1)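 From the Consortium for Functional Glycomics database, 3228 arrays were curated, keeping only those whose protein sequence was available. Binding is given as a within-array Z-score averaged across arrays sharing a protein sequence and across linkers. Negative Z-scores can be read as non-binding.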"}, "Gal(b1-3)GlcNAc6S": {"target": "Gal(b1-3)GlcNAc6S", "summary_of_the_method": "as §1"}, "[2]": {"target": "Gal(b1-3)[Fuc(a1-4)]GlcNAc", "summary_of_the_method": "as §1"}, "[3]": {"target": "Gal(b1-3)[Fuc(a1-4)]GlcNAc(b1-2)Man", "summary_of_the_method": "as §1"}, "[4]": {"target": "Gal(b1-3)[Fuc(a1-4)]GlcNAc(b1-2)Man(a1-3)[Gal(b1-3)[Fuc(a1-4)]GlcNAc(b1-2)Man(a1-6)]Man(b1-4)GlcNAc(b1-4)[Fuc(a1-6)]GlcNAc", "summary_of_the_method": "as §1"}, "[5]": {"target": "Gal(b1-3)[Fuc(a1-4)]GlcNAc(b1-3)Gal(b1-3)[Fuc(a1-4)]GlcNAc", "summary_of_the_method": "as §1"}, "[6]": {"target": "Gal(b1-3)[Fuc(a1-4)]GlcNAc(b1-3)Gal(b1-4)[Fuc(a1-3)]GlcNAc", "summary_of_the_method": "as §1"}, "[7]": {"target": "Gal(b1-3)[Fuc(a1-4)]GlcNAc(b1-6)GalNAc", "summary_of_the_method": "as §1"}, "[8]": {"target": "Gal(b1-3)[GlcNAc(b1-6)]GalNAc", "summary_of_the_method": "as §1"}, "[9]": {"target": "Gal(b1-3)[Neu5Ac(a2-6)]GalNAc", "summary_of_the_method": "as §1"}, "[10]": {"target": "Gal(b1-3)[Neu5Ac(a2-6)]GlcNAc(b1-4)Gal(b1-4)Glc", "summary_of_the_method": "as §1"}, "[11]": {"target": "Gal(b1-3)[Neu5Ac(b2-6)]GalNAc", "summary_of_the_method": "as §1"}, "Gal(b1-4)Gal": {"target": "Gal(b1-4)Gal", "summary_of_the_method": "as §1"}, "[12]": {"target": "Gal(b1-4)GalNAc(a1-3)[Fuc(a1-2)]Gal(b1-4)GlcNAc", "summary_of_the_method": "as §1"}, "[13]": {"target": "Gal(b1-4)GalNAc(b1-3)[Fuc(a1-2)]Gal(b1-4)GlcNAc", "summary_of_the_method": "as §1"}, "Gal(b1-4)Glc": {"target": "Gal(b1-4)Glc", "summary_of_the_method": "as §1"}, "Gal(b1-4)Glc6S": {"target": "Gal(b1-4)Glc6S", "summary_of_the_method": "as §1"}, "Gal(b1-4)GlcNAc": {"target": "Gal(b1-4)GlcNAc", "summary_of_the_method": "as §1"}, "[14]": {"target": "Gal(b1-4)GlcNAc(a1-6)Gal(b1-4)GlcNAc", "summary_of_the_method": "as §1"}, "Gal(b1-4)GlcNAc(b1-2)Man": {"target": "Gal(b1-4)GlcNAc(b1-2)Man", "summary_of_the_method": "as §1"}, "[15]": {"target": "Gal(b1-4)GlcNAc(b1-2)Man(a1-3)Man(b1-4)GlcNAc(b1-4)GlcNAc", "summary_of_the_method": "as §1"}, "[16]": {"target": "Gal(b1-4)GlcNAc(b1-2)Man(a1-3)[Gal(b1-4)GlcNAc(b1-2)Man(a1-6)]Man(b1-4)GlcNAc(b1-4)GlcNAc", "summary_of_the_method": "as §1"}, "[17]": {"target": "Gal(b1-4)GlcNAc(b1-2)Man(a1-3)[Gal(b1-4)GlcNAc(b1-2)Man(a1-6)]Man(b1-4)GlcNAc(b1-4)[Fuc(a1-6)]GlcNAc", "summary_of_the_method": "as §1"}, "[18]": {"target": "Gal(b1-4)GlcNAc(b1-2)Man(a1-3)[Gal(b1-4)GlcNAc(b1-2)Man(a1-6)][Gal(b1-4)GlcNAc(b1-4)]Man(b1-4)GlcNAc(b1-4)[Fuc(a1-6)]GlcNAc", "summary_of_the_method": "as §1"}, "[19]": {"target": "Gal(b1-4)GlcNAc(b1-2)Man(a1-3)[Gal(b1-4)GlcNAc(b1-2)Man(a1-6)][GlcNAc(b1-4)]Man(b1-4)GlcNAc(b1-4)[Fuc(a1-6)]GlcNAc", "summary_of_the_method": "as §1"}, "[20]": {"target": "Gal(b1-4)GlcNAc(b1-2)Man(a1-3)[GlcNAc(b1-2)Man(a1-6)]Man(b1-4)GlcNAc(b1-4)GlcNAc", "summary_of_the_method": "as §1"}, "[21]": {"target": "Gal(b1-4)GlcNAc(b1-2)Man(a1-3)[GlcNAc(b1-4)][Gal(b1-4)GlcNAc(b1-2)Man(a1-6)]Man(b1-4)GlcNAc(b1-4)GlcNAc", "summary_of_the_method": "as §1"}, "[22]": {"target": "Gal(b1-4)GlcNAc(b1-2)Man(a1-3)[Man(a1-6)]Man(b1-4)GlcNAc(b1-4)GlcNAc", "summary_of_the_method": "as §1"}, "[23]": {"target": "Gal(b1-4)GlcNAc(b1-2)Man(a1-6)Man(b1-4)GlcNAc(b1-4)GlcNAc", "summary_of_the_method": "as §1"}, "[24]": {"target": "Gal(b1-4)GlcNAc(b1-2)Man(a1-6)[GlcNAc(b1-2)Man(a1-3)]Man(b1-4)GlcNAc(b1-4)GlcNAc", "summary_of_the_method": "as §1"}, "[25]": {"target": "Gal(b1-4)GlcNAc(b1-2)Man(a1-6)[Man(a1-3)]Man(b1-4)GlcNAc(b1-4)GlcNAc", "summary_of_the_method": "as §1"}, "[26]": {"target": "Gal(b1-4)GlcNAc(b1-2)[Gal(b1-4)GlcNAc(b1-4)]Man(a1-3)[Gal(b1-4)GlcNAc(b1-2)Man(a1-6)]Man(b1-4)GlcNAc(b1-4)GlcNAc", "summary_of_the_method": "as §1"}, "[27]": {"target": "Gal(b1-4)GlcNAc(b1-2)[Gal(b1-4)GlcNAc(b1-4)]Man(a1-3)[Gal(b1-4)GlcNAc(b1-2)[Gal(b1-4)GlcNAc(b1-6)]Man(a1-6)]Man(b1-4)GlcNAc(b1-4)GlcNAc", "summary_of_the_method": "as §1"}, "[28]": {"target": "Gal(b1-4)GlcNAc(b1-2)[Gal(b1-4)GlcNAc(b1-4)]Man(a1-3)[GlcNAc(b1-4)][Gal(b1-4)GlcNAc(b1-2)Man(a1-6)]Man(b1-4)GlcNAc(b1-4)GlcNAc", "summary_of_the_method": "as §1"}, "[29]": {"target": "Gal(b1-4)GlcNAc(b1-2)[Gal(b1-4)GlcNAc(b1-4)]Man(a1-3)[GlcNAc(b1-4)][Gal(b1-4)GlcNAc(b1-2)[Gal(b1-4)GlcNAc(b1-6)]Man(a1-6)]Man(b1-4)GlcNAc(b1-4)GlcNAc", "summary_of_the_method": "as §1"}, "[30]": {"target": "Gal(b1-4)GlcNAc(b1-2)[Gal(b1-4)GlcNAc(b1-6)]Man(a1-6)[Gal(b1-4)GlcNAc(b1-2)Man(a1-3)]Man(b1-4)GlcNAc(b1-4)GlcNAc", "summary_of_the_method": "as §1"}, "[31]": {"target": "Gal(b1-4)GlcNAc(b1-2)[Gal(b1-4)GlcNAc(b1-6)]Man(a1-6)[Gal(b1-4)GlcNAc(b1-2)Man(a1-3)]Man(b1-4)GlcNAc(b1-4)[Fuc(a1-6)]GlcNAc", "summary_of_the_method": "as §1"}}, "note": "This is one part of the list.", "data": [{"binder": "B1", "values": [{"measurement": "glycan array binding signal (z-score)", "setting": "[1]", "value": 0.026}, {"measurement": "glycan array binding signal (z-score)", "setting": "Gal(b1-3)GlcNAc6S", "value": -0.422}, {"measurement": "glycan array binding signal (z-score)", "setting": "[2]", "value": -0.223}, {"measurement": "glycan array binding signal (z-score)", "setting": "[3]", "value": -0.293}, {"measurement": "glycan array binding signal (z-score)", "setting": "[4]", "value": 0.202}, {"measurement": "glycan array binding signal (z-score)", "setting": "[5]", "value": -0.45}, {"measurement": "glycan array binding signal (z-score)", "setting": "[6]", "value": 0.729}, {"measurement": "glycan array binding signal (z-score)", "setting": "[7]", "value": -0.101}, {"measurement": "glycan array binding signal (z-score)", "setting": "[8]", "value": -0.015}, {"measurement": "glycan array binding signal (z-score)", "setting": "[9]", "value": -0.416}, {"measurement": "glycan array binding signal (z-score)", "setting": "[10]", "value": -0.261}, {"measurement": "glycan array binding signal (z-score)", "setting": "[11]", "value": -0.256}, {"measurement": "glycan array binding signal (z-score)", "setting": "Gal(b1-4)Gal", "value": -0.29}, {"measurement": "glycan array binding signal (z-score)", "setting": "[12]", "value": -0.203}, {"measurement": "glycan array binding signal (z-score)", "setting": "[13]", "value": -0.702}, {"measurement": "glycan array binding signal (z-score)", "setting": "Gal(b1-4)Glc", "value": -0.471}, {"measurement": "glycan array binding signal (z-score)", "setting": "Gal(b1-4)Glc6S", "value": -0.374}, {"measurement": "glycan array binding signal (z-score)", "setting": "Gal(b1-4)GlcNAc", "value": -0.356}, {"measurement": "glycan array binding signal (z-score)", "setting": "[14]", "value": -0.367}, {"measurement": "glycan array binding signal (z-score)", "setting": "Gal(b1-4)GlcNAc(b1-2)Man", "value": 0.061}, {"measurement": "glycan array binding signal (z-score)", "setting": "[15]", "value": 0.975}, {"measurement": "glycan array binding signal (z-score)", "setting": "[16]", "value": 0.431}, {"measurement": "glycan array binding signal (z-score)", "setting": "[17]", "value": 0.793}, {"measurement": "glycan array binding signal (z-score)", "setting": "[18]", "value": 0.185}, {"measurement": "glycan array binding signal (z-score)", "setting": "[19]", "value": 0.149}, {"measurement": "glycan array binding signal (z-score)", "setting": "[20]", "value": 0.447}, {"measurement": "glycan array binding signal (z-score)", "setting": "[21]", "value": -0.422}, {"measurement": "glycan array binding signal (z-score)", "setting": "[22]", "value": 0.112}, {"measurement": "glycan array binding signal (z-score)", "setting": "[23]", "value": -0.302}, {"measurement": "glycan array binding signal (z-score)", "setting": "[24]", "value": -0.308}, {"measurement": "glycan array binding signal (z-score)", "setting": "[25]", "value": -0.361}, {"measurement": "glycan array binding signal (z-score)", "setting": "[26]", "value": -0.114}, {"measurement": "glycan array binding signal (z-score)", "setting": "[27]", "value": -0.304}, {"measurement": "glycan array binding signal (z-score)", "setting": "[28]", "value": 0.029}, {"measurement": "glycan array binding signal (z-score)", "setting": "[29]", "value": -0.035}, {"measurement": "glycan array binding signal (z-score)", "setting": "[30]", "value": -0.305}, {"measurement": "glycan array binding signal (z-score)", "setting": "[31]", "value": 0.036}]}]}
